Experiments:
HSV-1, strain KOS = assay: HSV-induced stromal keratitis in C.AL.20 mice, intramuscular treatment; details: days 7 to 11
[1] = test system: HSV-1 ICP0, ICP4, ICP8, TK and gC transcripts; assay: RNase protection assay of viral transcripts, infected Vero cells; details: 100 μM Rosco added immediately after adsorption

CC[C@H](CO)Nc1nc(NCc2ccccc2)c2ncn(C(C)C)c2n1 [Rosco, Roscovitine]
average loss of original body weight at the peak of weight loss (HSV-1, strain KOS): 4.6%
accumulation of HSV immediate-early and early transcripts [1]: efficiently inhibited

Reference: patent US20030099944A1, “Combination therapy involving drugs which target cellular proteins and drugs which target pathogen-encoded proteins” (priority 1998, published 2003)
